From PMC1762320, “Separation of Anti-Proliferation and Anti-Apoptotic Functions of Retinoblastoma Protein through Targeted Mutations of Its A/B Domain” (PLoS ONE, 2006) come the findings set out here.

Sequences of proteins named here, by UniProt entry; tags and fusion partners are left off. A change or cut given only in a name is not applied to a line headed by its entry.
UniProt P03129: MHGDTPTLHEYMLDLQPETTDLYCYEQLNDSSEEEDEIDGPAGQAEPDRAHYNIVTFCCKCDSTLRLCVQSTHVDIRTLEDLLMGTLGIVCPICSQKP
UniProt O00716: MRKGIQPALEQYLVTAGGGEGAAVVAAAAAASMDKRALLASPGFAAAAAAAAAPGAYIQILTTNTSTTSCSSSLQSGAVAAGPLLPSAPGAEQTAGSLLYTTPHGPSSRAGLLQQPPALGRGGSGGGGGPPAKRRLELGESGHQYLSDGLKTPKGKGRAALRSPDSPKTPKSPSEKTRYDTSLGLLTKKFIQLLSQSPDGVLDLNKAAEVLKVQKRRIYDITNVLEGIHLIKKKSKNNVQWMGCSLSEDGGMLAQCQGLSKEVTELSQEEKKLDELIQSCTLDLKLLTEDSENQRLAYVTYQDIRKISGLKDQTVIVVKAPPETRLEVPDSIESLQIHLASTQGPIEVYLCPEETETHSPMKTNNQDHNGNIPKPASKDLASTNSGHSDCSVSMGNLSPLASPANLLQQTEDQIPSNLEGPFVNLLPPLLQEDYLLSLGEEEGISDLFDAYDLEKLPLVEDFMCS

In test [1] the target is T1, GST-RB (amino acids 395 through 928) (human) (UniProt P06400).
T1 sequence: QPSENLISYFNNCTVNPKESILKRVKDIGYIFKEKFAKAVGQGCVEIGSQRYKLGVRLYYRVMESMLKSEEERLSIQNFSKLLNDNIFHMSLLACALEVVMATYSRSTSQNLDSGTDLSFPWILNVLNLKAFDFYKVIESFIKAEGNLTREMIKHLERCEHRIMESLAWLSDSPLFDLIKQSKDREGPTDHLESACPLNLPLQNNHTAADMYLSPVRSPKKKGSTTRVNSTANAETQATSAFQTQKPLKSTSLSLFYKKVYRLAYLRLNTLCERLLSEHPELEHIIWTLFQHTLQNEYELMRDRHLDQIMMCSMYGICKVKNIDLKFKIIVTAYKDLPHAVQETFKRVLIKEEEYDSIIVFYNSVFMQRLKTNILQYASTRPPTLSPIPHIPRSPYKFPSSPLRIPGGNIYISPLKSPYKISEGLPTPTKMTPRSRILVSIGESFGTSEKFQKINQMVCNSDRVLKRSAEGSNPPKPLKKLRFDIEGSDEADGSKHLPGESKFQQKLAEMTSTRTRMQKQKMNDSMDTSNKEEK
As to the kind of experiment: pull-down; by the legend: GST-RB proteins immobilised on glutathione Sepharose, incubated with lysates of 293T cells expressing HA-E2F3 and DP1; anti-HA blot (the text calls it a co-immunoprecipitation); only the target purified.

The target in test [2] is T2, GST-RB-K (amino acids 395 through 928, K530A) (human) (UniProt P06400).
T2 sequence: T1 sequence with K136A
Described as above.

In test [3] the target is GST-E7 (human papilloma virus-16, full-length) (human papilloma virus-16) (UniProt P03129). As to the kind of experiment: pull-down; GST-E2F1 or GST-E7 immobilised on glutathione-Sepharose, incubated with whole cell lysates of adenovirus-infected MDA-MB468 cells; 25 mM Tris-HCl pH 7.5, 250 mM KCl, 0.1% Triton X-100, 0.5 mM EDTA, 0.1 mM DTT; anti-RB blot; only the target purified.

Changes are numbered by the printed parent chain. These are yes or no findings as the source states them, for the method shown. In cells and extracts the contact can be indirect. Some binding calls cover weakened binding; strength is not graded here. For part of these data: Sequences can lack the tags named with a protein.

“HA-tagged E2F3 co-expressed with DP1 (E2F3/DP1) (from UniProt O00716 1-465; Q14186 1-410) (complex)”: the binding entry in test [1] was “binds”; in test [2], “binds weakly”.

In the case of “RB-K530A (expressed in cells) (from UniProt P06400 1-928)”, the binding result in test [3] is reported as “binds”.

For the molecule “RB-K530A/N757F (expressed in cells) (from UniProt P06400 1-928)”, in test [3], the binding result is on record as “no binding”.

Consider “RB-N757F (expressed in cells) (from UniProt P06400 1-928)”, for which, in test [3], the binding result was “no binding”.

B1: retinoblastoma protein RB (wild type, expressed in cells) (natural protein, human, UniProt P06400 1-928, looked up)
chain: MPPKTPRKTAATAAAAAAEPPAPPPPPPPEEDPEQDSGPEDLPLVRLEFEETEEPDFTALCQKLKIPDHVRERAWLTWEKVSSVDGVLGGYIQKKKELWGICIFIAAVDLDEMSFTFTELQKNIEISVHKFFNLLKEIDTSTKVDNAMSRLLKKYDVLFALFSKLERTCELIYLTQPSSSISTEINSALVLKVSWITFLLAKGEVLQMEDDLVISFQLMLCVLDYFIKLSPPMLLKEPYKTAVIPINGSPRTPRRGQNRSARIAKQLENDTRIIEVLCKEHECNIDEVKNVYFKNFIPFMNSLGLVTSNGLPEVENLSKRYEEIYLKNKDLDARLFLDHDKTLQTDSIDSFETQRTPRKSNLDEEVNVIPPHTPVRTVMNTIQQLMMILNSASDQPSENLISYFNNCTVNPKESILKRVKDIGYIFKEKFAKAVGQGCVEIGSQRYKLGVRLYYRVMESMLKSEEERLSIQNFSKLLNDNIFHMSLLACALEVVMATYSRSTSQNLDSGTDLSFPWILNVLNLKAFDFYKVIESFIKAEGNLTREMIKHLERCEHRIMESLAWLSDSPLFDLIKQSKDREGPTDHLESACPLNLPLQNNHTAADMYLSPVRSPKKKGSTTRVNSTANAETQATSAFQTQKPLKSTSLSLFYKKVYRLAYLRLNTLCERLLSEHPELEHIIWTLFQHTLQNEYELMRDRHLDQIMMCSMYGICKVKNIDLKFKIIVTAYKDLPHAVQETFKRVLIKEEEYDSIIVFYNSVFMQRLKTNILQYASTRPPTLSPIPHIPRSPYKFPSSPLRIPGGNIYISPLKSPYKISEGLPTPTKMTPRSRILVSIGESFGTSEKFQKINQMVCNSDRVLKRSAEGSNPPKPLKKLRFDIEGSDEADGSKHLPGESKFQQKLAEMTSTRTRMQKQKMNDSMDTSNKEEK
As for B1, the binding result in test [3] is given as “binds”.
